Reference: ChEMBL document CHEMBL4888484, “Replenishing the malaria drug discovery pipeline: Screening and hit evaluation of the MMV Hit Generation Library 1 (HGL1) against asexual blood stage Plasmodium falciparum ,using a nano luciferase reporter read-out” (2022)
Screen size: about 150,000 compounds; about 540 (0.36%) showed an effect of 50% or more. Some of the results follow.

Each compound was assayed on Plasmodium falciparum (assay: Primary screen in NF54 nanoGlo assay, in single point, at 2uM, 72h; a lower Z score goes with more inhibition). Settings: timepoint 72 hour.
Format: functional, Erythrocyte

SMILES	% Inhibition [%]	Z score
C[C@H]1CN(CCOC(=O)N(C)C)C(C)(C)CO1	5	-0.72
Cc1cc(NC(=O)c2ccc(C(F)(F)F)c(=O)[nH]2)nn1C	-4	0.58
Fc1cc2ncn(Cc3nccn3CC(F)(F)F)c2cc1F	-12	1.6
CC(=O)N1c2ccc(S(=O)(=O)N3CCCCC3)cc2C[C@H]1C(=O)Nc1ccc(C)c(C)c1	-2	0.24
Cn1c(CCNC2CC(C)(C)CC(C)(C)C2)n[nH]c1=O	-12	1.47
Cc1nc(N(C)C[C@@]2(C)CCN(C)C2)c2c(C)nn(C)c2n1	-2	0.41
CC(=O)N1CC2=Nc3cccc4[nH]cc(c34)[C@H](c3ccc(Cl)cc3Cl)C2=C1O	1	-0.19
O=C(c1coc(-c2ccccc2)n1)N1CC[C@H](Oc2cccc(F)c2)C1	1	-0.2
CCc1nc(-c2ccc3c(c2)CCN3C(=O)Cc2ccc(OC)c(OC)c2)no1	18	-2.06
COc1cccc(-c2cnc3nc(C)[nH]c3c2)c1F	-12	1.52
CCCc1cc(CNc2ncnc3onc(C)c23)on1	-15	2.23
CC1C(c2ccccc2)CCN1C(=O)C1CCCC(N)C1 (stereo unspecified)	0	0.06
C[C@@]1(C(=O)N2CCN(Cc3ccccc3)CC2)Oc2ccccc2NC1=O	3	-0.44
CCN(CC(=O)Nc1ccc2c(c1)OCCO2)C(=O)CCc1ccc(F)cc1	1	-0.17
CC(C)(C)OC(=O)N1CCC(c2c(C(=O)N3CCN(c4ccc(F)cc4)CC3)cnn2C(C)(C)C)CC1	-8	1.13
O=C(CCC1CCCCC1)Nc1ccc(-c2nc3cc(Cl)ccc3o2)cc1	30	-3.45
Cn1c(C(F)(F)F)nn(C2CCN(C(=O)c3ccccc3Br)CC2)c1=O	4	-0.5
C[C@@H](CC#N)NC(=O)Nc1cc(-c2ccccc2)ns1	35	-5.06
O=C(NCCN1CCOCC1)N1CCC=C(F)C1	-11	0.98
CCN(C(=O)C1(C)COC1)C1CN(C(=O)C2(C)COC2)C1	6	-0.98
CCCCN(CCC(=O)NCCc1ccccc1)C(=O)c1cc(C)oc1C	-28	4.06

SMILES	% Inhibition [%]	Z score
Cc1nccn1[C@@H](C)C(=O)N1CCC(c2cc(N3CCCC3)ncn2)CC1	1	-0.16
CN(C)C(=NCC1CCCC1O)NCc1ccccc1 (stereo unspecified)	8	-1.5
CN(C)c1ccc(NC(=O)N2CCC[C@H]2c2ccncc2)cn1	-8	1.58
CC(C)(C(=O)NCc1csc(=O)[nH]1)C(F)F	-5	0.76
O=C1[C@@H](NC(=O)C2(O)CCCC2)CCCN1Cc1ccccc1	-11	1.78
Cc1cc(Cl)ccc1NC(=O)N1C[C@H](c2nc(-c3cccnc3)no2)[C@@H](C)C1	-9	1.05
CCCc1nc(C)cc(NCc2csc(N)n2)n1	-6	0.92
CC1(C)O[C@@H]2C[C@@](OCc3ccccc3F)(C(=O)NCC3CCCO3)CC(OCc3cccc(OC(F)(F)F)c3)[C@@H]2O1 (stereo partly specified)	-5	0.58
Cc1noc(C)c1CC(=O)N1CCC(n2nc(C(F)(F)F)n(C)c2=O)CC1	-4	0.67
Cc1cc(N(C)C)nc(NCCNC(=O)Nc2cccc(F)c2C)n1	20	-2.61
O=C(N1CCCC1)N1CC[C@H]2[C@H](CCC(=O)N2CCCCO)C1	-7	1.45
C[C@H](O)CN(C)S(=O)(=O)c1cc(F)c(Br)cc1F	-10	1.13
Cc1ccc(CNC(=O)c2[nH]nc3c2CCC3)s1	-1	0.17
CC(C)[C@@]1(CO)CCCN(C(=O)Nc2nnc(C3CCOCC3)s2)C1	-2	0.15
CC(C)c1nccc(N(C)C[C@H](O)c2cccnc2)n1	-4	0.69
O=C(Cn1nc(C2CC2)ccc1=O)NCc1ccccc1	2	-0.42
CC[C@H](NC(=O)CC1CCN(C(C)C)CC1)c1nc(C)no1	-10	1.27
CCc1nc(C)c(C(=O)N2CCC[C@H](c3nc(-c4ccccc4)no3)C2)o1	-16	1.49
O=C(c1ccn2c(-c3cccc(Cl)c3)nnc2c1)N1CCN(c2ccccc2F)CC1	5	-0.53
COc1c(C)cc(C(=O)[C@H]2CCCN(C(=O)c3cc(=O)[nH]c(=O)[nH]3)C2)cc1C	-2	0.26
CC1(COc2ccccc2C#N)COC1	13	-1.51

SMILES	% Inhibition [%]	Z score
O=C(Nc1cncc(Cl)c1)NC12CCC(CC1)C2	-2	0.35
COc1ccc(C(=O)NC2CC2)c(OC2CCN([C@@H](C)Cc3ccc(C)cc3)CC2)c1	7	-1.14
OCCN(Cc1cccnc1)Cc1cn2cc(Cl)ccc2n1	-7	0.66
Cc1c(CC(=O)N[C@H]2CCNC2=O)c2c(n1Cc1ccccc1)CCCC2=O	-21	2.73
CCc1nc([C@H](C)Nc2cnn(CC)c2)oc1-c1ccccc1	-11	1.45
Cn1nc2c(cc1=O)C[C@@H](NC(=O)c1ccc3c(c1)OCO3)CC2	-25	4.33
CN(C)[C@H]1CCN(C(=O)Nc2ccccc2CS(=O)(=O)c2ccccc2)C1	2	-0.25
COc1ccc(CN(C)CCN2CCCCC2=O)cn1	11	-1.39
COc1ccc(-c2nnc(-c3cc(S(=O)(=O)N4CCCCCC4)ccc3Cl)o2)cc1	-1	0.08
COC(=O)c1[nH]c(C)cc1NS(=O)(=O)c1ccc(C2CCCCC2)cc1	2	-0.19
Cc1cccc(Cc2sc(N3C(=O)N[C@@](C)(CCF)C3=O)nc2C)c1	-12	1.17
Cc1ccsc1-c1nc(CC(N)=O)nn1C(C)(C)C	0	0.06
Cc1nc(C(=O)NCCOc2cncc(Cl)c2)c(C)o1	27	-3.06
Cc1ccc(OCC2CCN(C(=O)c3cnn(-c4ccccc4)n3)CC2)nn1	-3	0.32
Cn1cc(NC(=O)[C@@H]2CCCN2c2ncnc3sccc23)cn1	-1	0.11
Cc1cc(CN2CCCC2)cc(-c2cc(F)cc3c2O[C@@H](CN)C3)c1	-10	1.34
CNC(=O)[C@H]1CN(C(=O)Nc2cc(C)ccc2C)CC12CCCC2	-4	0.44
COCc1cc(=O)n(CC(=O)NCc2ccc(F)cc2)c(N2CCCC2)n1	2	-0.26
Cc1ncc(C(=O)N2C[C@@H]3C[C@H](N(C)C)CN3C(=O)[C@@H]2CC(C)C)cn1	-3	0.59
COc1ccccc1NC(=O)CNC(=O)C1OC2OC(C)(C)OC2C2OC(C)(C)OC12 (stereo unspecified)	1	-0.17
CCOC(=O)c1cn(-c2nc(C)cc(C)n2)nn1	-15	2.93

SMILES	% Inhibition [%]	Z score
CNC(=O)CCCNc1nc2c(s1)c(C)nn2C	-18	1.91
Cc1nc2cc(NC(=O)[C@H]3CC34CCN(Cc3cc(F)cc(F)c3)CC4)ccc2s1	3	-0.38
O=C(NC[C@H]1CCN(Cc2ccncc2Cl)C1)C(=O)c1ccco1	9	-0.98
O=C(O)c1ccc2c(c1)CCN2S(=O)(=O)c1cnn(C2CCCC2)c1	32	-3.64
Cc1ccc(-c2ccccc2)n1-c1ccc2c(c1)OCO2	-10	1.33
COc1ccccc1CNC(=O)C1CCC(Cn2c(=O)[nH]c3ccsc3c2=O)CC1 (stereo unspecified)	-9	0.92
O=C(NCCn1nc(C(F)(F)F)cc1C1CC1)C1CCC1	6	-0.95
O[C@@H](CNCc1ccccc1)c1ccsc1	-2	0.2
O=C1OCCC1N1CCOC(c2nccs2)C1 (stereo unspecified)	-7	1.01
CN1CCN(CCOc2ccc(NC(=O)c3coc(C4CCC4)n3)cc2)CC1	-16	2.45
COc1ccc(Cc2noc(C3CC4CCC3O4)n2)cc1OC (stereo unspecified)	-7	1.33
C=CCNC(=O)c1ccc(N(C)C[C@H](O)c2ccc(F)cc2)nc1	4	-0.52
O=C(COc1ccccc1)N1CCOC[C@H](Oc2ccc(C(F)(F)F)cc2)C1	19	-2.25
CC[C@@H](CNS(C)(=O)=O)Nc1cnccn1	-5	0.67
O=C1[C@H]2C(Cc3c[nH]c4ccccc34)N[C@@]3(C(=O)Nc4ccc(F)cc43)[C@H]2C(=O)N1CC1CCCO1 (stereo partly specified)	39	-5.09
Cc1ccc(CNC(=O)[C@@H]2Cn3cccc3C(=O)N2)o1	-2	0.29
CC(=O)c1nc2ccccc2n1CC(=O)Nc1nn(C)c2nc(C)cc(C)c12	11	-1.06
Cc1ccc(Cl)cc1CNC(=O)N(C)CCO	6	-0.87
CCCC12CCC(C(=O)Oc3ccc(OCC)c(C#N)c3C#N)(CC1)CC2	-43	5.01
COc1ccc(OC)c(C(=O)N(Cc2cc3cccc(C)c3nc2N(C)C)C[C@H]2CCCO2)c1	-2	0.46
